Laboratory results from PubChem BioAssay AID485294 (National Center for Advancing Translational Sciences (NCATS), 2010).
The campaign covered roughly 370,000 compounds. About 150 (0.041%) were called active. Inconclusive results, whose numbers are uncertain, are shown with a selection of clear calls. Calls follow the shape of the dose curve; as a rule, active = well fitted inhibition curve with a large enough effect; inconclusive = small, poorly fitted or top-dose-only effect; inactive = flat fitted curve, though single readings scatter. No potency is given beside an inconclusive call; the fits are too rough.

Molecular target: Beta-lactamase (Escherichia coli (strain K12)) (UniProt P00811)
UniProt P00811, sequence (P00811 whole entry, looked up): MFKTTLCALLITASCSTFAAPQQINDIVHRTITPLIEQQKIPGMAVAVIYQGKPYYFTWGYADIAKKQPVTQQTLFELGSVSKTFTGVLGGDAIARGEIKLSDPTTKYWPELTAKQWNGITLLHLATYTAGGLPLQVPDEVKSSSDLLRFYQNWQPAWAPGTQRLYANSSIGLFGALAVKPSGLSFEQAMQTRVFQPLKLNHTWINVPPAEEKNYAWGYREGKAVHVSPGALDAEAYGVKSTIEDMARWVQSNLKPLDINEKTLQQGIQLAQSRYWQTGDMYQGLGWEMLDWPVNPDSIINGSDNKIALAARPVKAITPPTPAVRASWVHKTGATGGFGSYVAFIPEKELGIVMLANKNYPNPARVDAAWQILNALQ
Assay: qHTS Inhibitors of AmpC Beta-Lactamase (assay with detergent); also: nearly all actives have a fitted effect of over 25% in size;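 as to activity change, negative = inhibition: 0% = no-compound wells and -100% = no-enzyme wells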
Conditions: AmpC hydrolysis of nitrocefin, absorbance 480 nm, 0.01% Triton; activity change, negative = inhibition: at 114 µM (top of the series)
In short: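 AmpC (5.3 nM in the dispensed reagent) in 20 mM phosphate pH 7.0 with 0.01% (detergent screen) or 0.0001% Triton X-100 was preincubated with compounds for 15 min at room temperature. Nitrocefin was then added from an 800 uM solution, and hydrolysis was followed at 480 nm.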
Potency is read from the fitted curve at half-maximal effect; tags tell the direction and shape of the fitted curve.

| SMILES | activity change, negative = inhibition | Potency |
| --- | --- | --- |
| COc1cccc(/C=N/Nc2snc(SC)c2C#N)c1 | inactive: 0.586% |  |
| COc1ccc(NC(=O)CN2C(=O)NC(C)(c3ccccc3)C2=O)cc1Cl (centres undefined) |  | inconclusive [inhibitor, full curve, poor fit] |
| Cc1cccc(NC(=O)C2CCCN(S(=O)(=O)c3ccc4c(c3)oc(=O)n4C)C2)c1C (centres undefined) | inactive: -10% |  |
| COc1ccc(N(Cc2cc(=O)[nH]c3ccccc23)C(=O)c2ccco2)cc1 |  | inconclusive [inhibitor, full curve, poor fit] |
| O=C(COc1ccc(S(=O)(=O)N2CCCC2)cc1)N1CCN(c2ccccc2F)CC1 |  | inconclusive [inhibitor, full curve, poor fit] |
| CC(C)OCCCNC(=O)c1cc(-c2cccnc2)nc2ccccc12 |  | inconclusive [inhibitor, single point] |
| O=C1c2ccccc2C(=O)N1CCSc1ccccc1 |  | inconclusive [inhibitor, full curve] |
| N#Cc1c(-c2ccccc2)oc(=O)c2ccccc12 |  | inconclusive [inhibitor, partial curve] |
| O=c1c2ccccc2nc(CSc2nnnn2-c2ccccc2)n1-c1ccccc1Cl | inactive: 2.88% |  |
| Cc1cc(NC(=O)c2cc(C3CC3)on2)n(-c2ccccc2)n1 |  | inconclusive [inhibitor, full curve, poor fit] |
| Nc1nnc(CSCc2ccccc2)s1 |  | inconclusive [inhibitor, partial curve] |
| CCOC(=O)CSc1cc(C)nc(NC(C)=O)n1 |  | inconclusive [inhibitor, full curve, poor fit] |
| Clc1ccc(-c2nnc3sc(-c4ccc(Br)o4)nn23)cc1 |  | inconclusive [inhibitor, full curve] |
| O=C(c1cnc2n(c1=O)CCS2)N1CCN(c2ccc([N+](=O)[O-])cc2)CC1 |  | inconclusive [inhibitor, full curve, poor fit] |
| CC1CC(C)CN(CC(O)COCCOc2ccc(Br)cc2)C1 (centres undefined) |  | inconclusive [inhibitor, full curve] |
| CCOC(=O)c1ccc(P(=O)(c2ccccc2)c2ccccc2)cc1 |  | inconclusive [inhibitor, full curve, poor fit] |
| COc1ccccc1NC(=O)CN1C(=O)NC2(CCCCCCC2)C1=O |  | inconclusive [inhibitor, full curve, poor fit] |
| Cc1ccc(C(=O)O/N=C2\CCSc3ccc(C)cc32)cc1 |  | inconclusive [inhibitor, partial curve] |
| Nc1nc(NC(=O)C(Cl)(Cl)Cl)nn1-c1ccccc1 |  | inconclusive [inhibitor, single point] |
| COc1cccc(C(=O)Cn2c(NCCCO)nc3ccccc32)c1 |  | inconclusive [inhibitor, full curve, poor fit] |
| CCN(c1ccc(NC(=O)COC(=O)c2cccs2)cc1)C(C)C |  | inconclusive [inhibitor, full curve, poor fit] |
| Cc1cc(C(=O)NCc2cccnc2)cs1 |  | inconclusive [inhibitor, full curve, poor fit] |

| SMILES | activity change, negative = inhibition | Potency |
| --- | --- | --- |
| Cc1ccc(C(=O)NCC(c2ccc3c(c2)OCO3)N2CCN(c3ccc(F)cc3)CC2)cc1 (centres undefined) | inactive: 15% |  |
| COC(=O)c1ccc(NC(=O)Cn2nc(C)c3ccccc3c2=O)cc1 |  | inconclusive [inhibitor, partial curve, poor fit] |
| COc1ccc(NC(=O)c2ccc3c(=O)n4nc(Nc5ccccc5C)sc4nc3c2)cc1Cl | inactive: 20.4% |  |
| CCC(C)NS(=O)(=O)c1ccc(N)cc1 (centres undefined) |  | inconclusive [inhibitor, full curve, poor fit] |
| CC(=O)C1=C(O)C(=O)N(c2ccc(C)cc2)C1c1ccccn1 (centres undefined) | inactive: 0.248% |  |
| COC(CNC(=O)c1ccc2c(c1)ncn2-c1cccc(C)c1)OC |  | inconclusive [inhibitor, single point] |
| Cc1ccccc1C(=O)NNC(=O)C1CCN(c2ncccn2)CC1 |  | inconclusive [inhibitor, full curve, poor fit] |
| Cc1ccc(S(=O)(=O)N2CCOC2CNC(=O)C(=O)NCCN(C)C)cc1 (centres undefined) | inactive: 1.85% |  |
| C=C(C)CSc1nc2nc(C)c(Br)cc2[nH]1 | inactive: 0.504% |  |
| COc1cccc(NC(=O)NNC(=O)CCc2ccc(O)c(O)c2)c1 | inactive: -3.51% |  |
| O=C(O)c1cccc(Cn2c(Cl)c(/C=N/NC(=O)c3cccc(O)c3)sc2=O)c1 | inactive: 4.48% |  |
| COC(=O)C1=C(C)OC(N)=C(C#N)C1c1cc2cc(C)ccc2nc1Cl (centres undefined) |  | inconclusive [inhibitor, partial curve] |
| Cc1ccc(N2CC(C(=O)OCC(=O)c3ccc(C)c([N+](=O)[O-])c3)CC2=O)cc1 (centres undefined) |  | inconclusive [inhibitor, partial curve] |
| O=C(OC1CSc2nc3ccccc3n2C1)c1ccco1 (centres undefined) |  | inconclusive [inhibitor, full curve, poor fit] |
| Cc1nn(-c2ccccc2)c(Cl)c1C(=O)NCC1CCCO1 (centres undefined) |  | inconclusive [inhibitor, full curve, poor fit] |
| O=C(NCC1CCOCC1)c1cc(COc2ccc(F)cc2F)on1 | inactive: 4.13% |  |
| O=c1[nH]c(/C=C/c2ccccc2Cl)nc2ccccc12 |  | inconclusive [inhibitor, full curve, poor fit] |
| CCCS(=O)(=O)N1CCN(Cc2ccc3c(c2)c2ccccc2n3CC)CC1 |  | inconclusive [inhibitor, single point] |
| C=CCN(C(=O)CNC(=O)c1ccco1)C(C(=O)NC1CCCCC1)c1cccnc1 (centres undefined) |  | inconclusive [inhibitor, partial curve, poor fit] |
| O=C(CCc1nc(-c2ccccc2F)no1)NC1CCCCC1 |  | inconclusive [inhibitor, single point] |
| COc1ccccc1N1CCN(CCCCNC(=O)c2ccc3ccccc3c2)CC1 | inactive: -9.56% |  |
| Cc1cc(Cl)c(OCCCCNC(C)(C)C)c(Br)c1 |  | inconclusive [inhibitor, single point] |
